{"source": "patent US9420793B2", "about": "“Antiparasitic compounds” (Avista Pharma Solutions, priority 2015, dated 2016)", "tested_on": "R. sanguineus, D. variablis, A. americanum, and I. scapularis", "assay": "R. sanguineus, D. variablis, A. americanum, and I. scapularis residual adult contact assay", "settings": "versus fluralaner, afoxolaner, (+/−)sarolaner; several tick species", "description": "R. sanguineus, D. variablis, A. americanum, and I. scapularis Residual Adult Contact Assay"}
{"smiles": "O=C(CC(F)(F)F)N1CC2(C1)OCc1cc(C3=NSC(c4cc(Cl)c(F)c(Cl)c4)(C(F)(F)F)C3)ccc12", "note": "(stereo not shown) [Compound 1, 1-[6-[5-(3,5-dichloro-4-fluoro-phenyl)-5-(trifluoromethyl)-4H-isothiazol-3-yl]spiro[1H-isobenzofuran-3,3′-azetidine]-1′-yl]-3,3,3-trifluoro-propan-1-one]", "values": [{"measurement": "tick potency by contact relative to commercially available standards", "value": "superior potency by contact"}]}
